The supplement of paper PMC10338343
± gives the standard deviation. The entries are a selection whose mix differs from that of the whole data set.

Tested on: MIWI (PIWIL1) piRISC loaded with L1MC piRNA (30 nt)
Test: pre-steady-state target cleavage rate (min^-1); MIWI and MILI are mouse PIWI proteins and EfPiwi is from a freshwater sponge; tags in brackets are library labels; higher = faster piRNA-guided slicing of the target
Conditions: guide: L1MC piRNA 5'p-UAACUAAAUACUAUGCAAGCUGUAGGUCCU
Method in brief: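 Cleave-'n-Seq used a transcribed, DNA-blocked target RNA library at 0.1 nM and active affinity-purified piRISC with one synthetic guide at 1 nM, with or without 500 nM GTSF1 partner protein, in HEPES–potassium acetate buffer at 33 °C for 0–8 or 0–960 min. Uncleaved targets were sequenced and normalised to depth and to weakly complementary targets, and three trials were pooled with k3 capped at 0.0001 min^-1. The pre-steady-state cleavage rate was estimated by a burst-and-steady-state fit.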

[1] = auxiliary factor: 500 nM mouse GTSF1
[2] = auxiliary factor: none (no GTSF1)

Sequence	pre-steady-state target cleavage rate [1]	pre-steady-state target cleavage rate [2]
UCCUGGAUGUCCUUGCAUAGUAUUUAGUUG [g2:g19:cont:t1G]	0.0673 ± 0.0083	0.00819 ± 0.0027
UGGACCUACAGCUUGCAUACUAUUUACAAA	0.0671 ± 0.012	0.00312 ± 0.0024
UCCUCCUACAGCUUGCAUUGUAUUUUGUUA	0.558 ± 0.027	0.0146 ± 0.004
UCGACCUACAGCUUGCAUAGUAAUUUAGUUA	0.179 ± 0.019	0.0146 ± 0.0048
UCCUGCUACAGCAUGCAUAGUAUAUAGUUA	0.718 ± 0.082	0.00874 ± 0.0032
UCGACGUACAGCUUGCAUAGUAAUUAGUUA	0.848 ± 0.033	0.0278 ± 0.0067
UCGACCUACAGCUUGGAUACUAUUUAGUUA	0.357 ± 0.032	0.0217 ± 0.0043
UCGACCUACAGCUUUCAUAGUAUUUAGUUA	0.584 ± 0.031	0.0288 ± 0.0064
UCCUGGAUGUGCUAGCAUAGUAUUUAGUUA	0.127 ± 0.013	0.00825 ± 0.0028
AGGACCUUCAGCUUGCAAAGUAUUUAGUUA	1.3 ± 0.051	0.0464 ± 0.0089
UCCUGCUACAGCUUGCAAUCUAUUUAGUUA	0.199 ± 0.024	0.00438 ± 0.0025
UCCUGGAUGUGAUUGCAUAGUAUUUAGUUA	0.0432 ± 0.0065	0.00496 ± 0.002
UCCUGGAUGAGCUUUGCAUAGUAUUUAGUUA	0.655 ± 0.043	0.0151 ± 0.0047
UCCUGGAUCAGCUUGAAUAGUAUUUAGUUA	1.3 ± 0.075	0.0225 ± 0.0059
UCCUGGAUCAGGUUGCAUAGUAUUUAGUAA	0.377 ± 0.037	0.00556 ± 0.0026
UGGACCUACAGCUUGCAUAGUAUUUUGAAA	0.307 ± 0.034	0.0092 ± 0.0036
UCGACCUACAGCAUGCUUAGUAUUUAGUUA	0.915 ± 0.057	0.0113 ± 0.0023
UCCUCCUACAGCUUGCAUUGUAUUUAGUAA	0.48 ± 0.022	0.0133 ± 0.003
UCCUGGAUGAGCUUGCAUAGUAAUUAGUUA	0.434 ± 0.035	0.0182 ± 0.0051
AGGACCUACAAGCUUGCAUAGUAUUUAGUUA	1.06 ± 0.048	0.0862 ± 0.018

Sequence	pre-steady-state target cleavage rate [1]	pre-steady-state target cleavage rate [2]
UCCUCCUACAGCUUGCAUAGUAUUUAAUUA	0.299 ± 0.028	0.0201 ± 0.0033
UCCUGGAUGUCGUUGCACAGUAUUUAGUUA	0.0315 ± 0.0065	0.00358 ± 0.0028
UCCUGGUACAGCUUGCAUAGUAUUUAAUUA	0.192 ± 0.039	0.0179 ± 0.0047
UCCACCUACUGCUUGCAAAGUAUUUAGUUA	0.623 ± 0.025	0.0305 ± 0.0052
UCCUGGAUGACCUUGCAUAGUUUUUAGUUA	0.0236 ± 0.0076	0.00589 ± 0.0016
UGGACCUAGAGCUUGCAUAGUAUUUAGAAA	0.296 ± 0.034	0.0101 ± 0.0034
UGGACCAUCAGCUUGCAUAGUAUUUUCAAA	0.199 ± 0.028	0.00348 ± 0.0026
UCCUGCUACUCGUUGCAUAGUAUUUAGUUA	0.489 ± 0.041	0.00699 ± 0.0017
UCGACCUACAGCUUGCAAGUAUUUAGUUA	0.427 ± 0.038	0.00682 ± 0.0023
UCGACCUACAGCUUGCAAAGUUUUUAGUUA	0.468 ± 0.022	0.0152 ± 0.0031
UCCUGGUACUGCUUGCAUAGUAUUUACUUA	0.038 ± 0.017	0.00656 ± 0.0029
UCCUGGAUGUGCUUGUAUAGUAUUUAGUUA	0.389 ± 0.026	0.0355 ± 0.0076
UGGACGUACAGCUUGCAUAGUAUUUACUUA	0.273 ± 0.029	0.0472 ± 0.0065
UCCUGGUACAGCUUGGAUAGUAUUAAGUUA	0.233 ± 0.047	0.0147 ± 0.0042
UCCUGGAACUGCUUGCUUAGUAUUUAGUUA	0.509 ± 0.026	0.0163 ± 0.0047
UCCACCUACAGCUUGCAUUGUAUUUAGUAA	0.317 ± 0.026	0.0111 ± 0.0025
UCGACGAUCAGCUUGCAUAGUAUUUUCAAA	0.354 ± 0.032	0.00393 ± 0.0023
UCCUGCUUCAGCUUGCAUAGUAUUUACUUA	0.346 ± 0.036	0.03 ± 0.0065
UCCUCCUACUCCUUGCAUAGUAUUUACAAA	0.269 ± 0.043	0.00227 ± 0.0019
UCGAGGUACAGCUUGCAUAGUAUUUACAAA	0.472 ± 0.062	0.00279 ± 0.0026

Sequence	pre-steady-state target cleavage rate [1]	pre-steady-state target cleavage rate [2]
UCCUGGUUGAGCUUGCAUAGUAUUUUCAAA	0.0288 ± 0.011	0.0031 ± 0.0029
UCCUGGUACUGCUUGCAUAGUAUUUAGAUA	0.0569 ± 0.022	0.0123 ± 0.0034
ACGACCUACAGCUUGCAUAGUAUUUACUUA	0.379 ± 0.029	0.0444 ± 0.0076
UCGACCUACAGCUUGGAUAGUAUAUAGUUA	0.853 ± 0.057	0.0278 ± 0.0066
UCCUGCUACAGCUUGCAUUGUAAUUAGUUA	0.48 ± 0.032	0.00988 ± 0.0039
UGGACCUACAGCUUGCUUAGUAUUUACUUA	0.547 ± 0.047	0.0292 ± 0.0077
AGGACCUAGAGCUUGCAUAGUAUUUAGAUA	0.358 ± 0.04	0.03 ± 0.0081
AGGACCAUCAGCUUGCAUAGUAUUUAGAAA	0.479 ± 0.048	0.017 ± 0.0049
UGGACCUACUGCUUGCAUAGUAUUAAGUUA	0.597 ± 0.03	0.0293 ± 0.0056
UCGAGCUACAGCUUGCAUAGUAAUUAGUUA	0.979 ± 0.058	0.0253 ± 0.0057
UCCACCUACAGGUUGCAUAGUAAUUAGUUA	0.799 ± 0.1	0.0102 ± 0.0016
UCCUGGUACAGCUUGCAUAGUAUAUUAGUUA	0.709 ± 0.09	0.0104 ± 0.0047
UCCUCCUACAGCUUGCUUAGUAAUUAGUUA	0.658 ± 0.03	0.00861 ± 0.0025
UCCUGCUACAGCUUGCAUAGAAUUUAGUAA	0.366 ± 0.051	0.0151 ± 0.005
UCGACCUACAGCUUGCAUAGUUAAUAGUUA	0.122 ± 0.019	0.00697 ± 0.0029
UCCUGGAUGAGCUUGCAUUGUAUUUACUUA	0.0649 ± 0.016	0.00906 ± 0.0031
UCCUGCUACAGUUUGCAUAGUAUUUAGUUA	1.13 ± 0.036	0.04 ± 0.006
UCCUGGAUGAGCUUGCUUAGUAUUUAGAAA	0.0699 ± 0.02	0.0037 ± 0.0031
UCCUCCUACAGCUUGCAUAGUGUUUAGUUA	0.874 ± 0.031	0.0506 ± 0.01
UCCUGGAUGACCUUGCAUAGUAUUUAGUUA	0.287 ± 0.031	0.0116 ± 0.0053
